In PubChem BioAssay AID488969 (Vanderbilt High Throughput Screening Facility, 2010):
Whole data set: some 110,000 compounds, median “z-score” near -0.1, cut for the highest 2% near 2. Some of the results follow. The source made the active and inactive calls.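 The calls were made as follows: active = z-score in the third read window above 3 or below -3; inactive = the rest.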

Biological target: Metabotropic glutamate receptor 8 (Rattus norvegicus) (UniProt P70579)
Assay: mGluR8 Gi/Go-coupled signaling modulation – cell-based, rat, thallium flux, HTS, primary screen (AID 488969)
Conditions: HEK293 rat mGluR8, GIRK (G protein-gated inwardly rectifying potassium channel) thallium flux, FluoZin2; at 10 µM; stronger effect = higher value; submaximal glutamate (EC20) added with thallium

UniProt P70579, sequence (P70579 whole entry, looked up): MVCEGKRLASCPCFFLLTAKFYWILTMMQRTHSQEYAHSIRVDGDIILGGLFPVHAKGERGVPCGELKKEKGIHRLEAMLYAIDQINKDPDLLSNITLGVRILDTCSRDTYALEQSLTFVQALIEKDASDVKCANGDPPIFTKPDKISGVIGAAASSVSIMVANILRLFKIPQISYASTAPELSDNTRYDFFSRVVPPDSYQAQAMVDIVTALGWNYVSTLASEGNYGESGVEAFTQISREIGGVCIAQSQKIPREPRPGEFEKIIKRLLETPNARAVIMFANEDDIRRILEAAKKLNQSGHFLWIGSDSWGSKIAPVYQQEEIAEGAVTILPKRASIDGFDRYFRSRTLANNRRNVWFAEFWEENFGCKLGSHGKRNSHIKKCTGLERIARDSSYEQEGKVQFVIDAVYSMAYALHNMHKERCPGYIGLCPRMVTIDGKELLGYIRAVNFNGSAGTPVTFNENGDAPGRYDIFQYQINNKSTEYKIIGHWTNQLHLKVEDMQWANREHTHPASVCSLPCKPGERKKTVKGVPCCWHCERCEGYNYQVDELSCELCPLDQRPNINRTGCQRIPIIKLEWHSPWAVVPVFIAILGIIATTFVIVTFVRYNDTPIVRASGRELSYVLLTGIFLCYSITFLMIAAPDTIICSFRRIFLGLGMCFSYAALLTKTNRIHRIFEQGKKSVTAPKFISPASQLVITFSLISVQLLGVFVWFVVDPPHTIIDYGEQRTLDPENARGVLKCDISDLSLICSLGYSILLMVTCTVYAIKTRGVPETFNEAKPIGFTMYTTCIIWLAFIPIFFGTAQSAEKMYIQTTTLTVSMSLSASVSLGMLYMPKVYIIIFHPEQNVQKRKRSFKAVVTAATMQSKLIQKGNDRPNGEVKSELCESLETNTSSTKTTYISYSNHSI

Row | Compound | z-score
1 | O=c1nc2ccccc2c(NS(=O)(=O)c2ccccc2)n1-c1ccccc1 | -0.176
2 | N#C/C(=C/c1ccc(N2CCCCC2)o1)c1cccc(F)c1 | 0.0995
3 | CN(CC(=O)NC(c1ccccc1)c1ccccc1)Cc1nc2ccccc2c(=O)[nH]1 | -0.265
4 | S=C(c1ccc(N2CCOCC2)cc1)N1CCOCC1 | 0.0674
5 | Cc1ccc(C2CC(c3cccc(Br)c3)Nc3nnnn32)cc1 (configuration not stated) | 0.52
6 | O=C(O)c1cc(S(=O)(=O)Nc2ccc3oc(=O)sc3c2)ccc1O | 1
7 | CCOc1ccc(/C=N/NC(=O)COc2ccccc2-c2ccccc2)cc1 | 0.17
8 | COc1cccc(NC(=O)COC(=O)CCCc2c[nH]c3ccccc23)c1 | 0.138
9 | CCc1ccc(C2=Nn3c(nnc3-c3cccs3)SC2)cc1 | 0.381
10 | CC(=O)Nc1ccccc1OCc1nnc(-c2cccs2)o1 | -0.261
11 | CCN(CC)C(=S)SCC(=O)Nc1nc(=O)c2ccccc2s1 | active: 5.2
12 | CCOC(=O)c1cnn(-c2ccccc2)c1NC(=O)C(F)(F)C(F)(F)C(F)(F)F | 0.0228
13 | CC(=O)c1ccc(-n2nnnc2SCC(=O)N2CCN(C(=O)c3ccco3)CC2)cc1 | 0.0827
14 | COc1cc(OC)cc(C(=O)N(Cc2nc(-c3cccc(C)c3)no2)C(C)C)c1 | 0.789
15 | COc1ccc(N2C(=O)C3CCCN3C2c2ccccc2)cc1 (configuration not stated) | -0.198
16 | CC12CCC(C(=O)N(Cc3ccccc3)Cc3ccccc3)(OC1=O)C2(C)C (configuration not stated) | -0.0292
17 | COC1CCCCC1NS(=O)(=O)c1ccc(Cl)cc1 (configuration not stated) | -0.0246
18 | C=CCc1cccc(CNc2nc3ccccc3n2CC)c1O | 0.0464
19 | CCc1nc2ccc(C(=O)Nc3ccc(NC(C)=O)cc3)cc2nc1CC | -0.168
20 | CC#CCCC(=O)N1C=Cc2ccccc2C1C#N (configuration not stated) | 1.61
21 | COc1cccc(NC(=S)N(CCc2nc3cc(C)c(C)cc3[nH]2)Cc2cccnc2)c1 | 1.13
22 | CC(C)CCNC(=O)CNC(=O)c1cccs1 | -0.151
23 | COc1cccc(CNC(=O)C2CCN(C(=O)N(C)C)CC2)c1 | 0.335

Row | Compound | z-score
24 | COC(=O)c1cc(NS(=O)(=O)c2ccc(NCc3cccnc3)c(N)c2)cc(C(=O)OC)c1 | -0.104
25 | COC(=O)c1ccccc1NC(=O)Cn1c(SC)c(F)cnc1=O | 0.27
26 | CCOC(=O)c1cnc2cc(C)ccn2c1=O | -0.119
27 | COc1cccc(NC(=S)NCCN2CCOCC2)c1 | -0.0624
28 | O=C(CCC1CCCC1)Nc1ccc(OCC(=O)N2CCOCC2)cc1 | 0.254
29 | CCn1c(C)c2c([n+]1CC)CC(C)(C)CC2=O | -0.301
30 | Cc1cnn(CCC(=O)NNC(=S)NCC(C)C)c1 | -0.286
31 | CCC/C(=N\NC(=O)c1ccccc1C)c1ccccc1 | -0.166
32 | CCOC(=O)c1nonc1NC(C)=O | 0.104
33 | C(=N\n1cnnc1)/c1ccccc1OCCOc1ccccc1 | -0.414
34 | CSc1ccc(-c2nnn(CC(=O)NCc3ccccc3)n2)cc1 | -0.31
35 | O=C(CSc1nnc(Nc2ccccc2)s1)NCCN1C(=O)CSC1=O | -0.304
36 | CCCCNC(=S)N(C)/N=C/c1sc(N2CCCCC2)nc1-c1cccs1 | -0.408
37 | Cn1c(SCC(=O)Nc2ncc(C(F)(F)F)cc2Cl)nnc1-c1ccc(Cl)cc1 | 0.131
38 | COc1cc2cc(CN(CCN3CCCC3)C(=O)Nc3ccc(F)cc3)c(=O)[nH]c2cc1OC | -0.532
39 | O=C(NCCN1CCOCC1)c1cccs1 | -0.0304
40 | CC(C)C(NC(=O)OCc1ccccc1)C(=O)NCc1ccc(C(=O)O)cc1 (configuration not stated) | -0.468
41 | O=C(NCCN1CCOCC1)Nc1ccccc1 | -0.0136
42 | Cc1ccc2[nH]c(=O)c3cc(C(=O)NCCN4CCN(C)CC4)sc3c2c1 | 0.666
43 | Cc1ccc(S(=O)(=O)N2CCCCC2)cc1C(=O)Nc1ccc(N2CCOCC2)cc1 | -0.0255
44 | O=C(CSC1=N/C(=C/c2ccc(Cl)c(Cl)c2)C(=O)N1c1ccccc1F)NC1CC1 | 0.494
45 | COc1ccc(/C=N/NC(=O)c2[nH]c3ccc(Br)cc3c2-c2ccccc2)cc1 | -0.133
46 | CC(C)c1ccc(CN2CC(C(=O)O)CC2=O)cc1 (configuration not stated) | -0.348

Row | Compound | z-score
47 | COc1ccccc1N1CCN(S(C)(=O)=O)CC1 | 0.541
48 | CCC1CCCCN1c1cc(C)nc2cc(-c3cccc(C)c3)nn12 (configuration not stated) | -0.0418
49 | O=C(Cn1cnc2ccccc2c1=O)N1CCN(Cc2ccccc2)CC1 | -0.354
50 | O=C(CCC1CCCC1)N1CCN(C(=O)c2cccnc2)CC1 | 0.841
51 | COc1cc(-c2nnc(SCC#CCO)o2)cc(OC)c1OC | 0.882
52 | O=S(=O)(NCCOc1ccccc1Cl)c1ccc2oc3ccccc3c2c1 | -0.0994
53 | c1ccc(-n2nc3ccccc3n2)cc1 | -0.148
54 | O=C(NC(Cc1ccccc1)C(=O)O)c1ccc(S(=O)(=O)N2CCCC2)cc1 (configuration not stated) | 0.0624
55 | COc1ccc(OC)c(C(=O)N2CCC(C(=O)c3ccc(F)cc3)CC2)c1 | -0.587
56 | CCN(c1ccccc1)c1nc2ccsc2c(=O)s1 | -0.392
57 | CCOC(=O)c1cnc(SCc2nc(N)nc(Nc3ccccc3OC)n2)nc1N | -0.34
58 | Cc1cc(C)cc(NC(=O)N2CCC(NC(=O)c3ccccc3C)CC2)c1 | -0.296
59 | O=C(Nc1ccon1)C(Sc1ccccc1)c1ccccc1 (configuration not stated) | -0.459
60 | COc1ccc(-c2nn(-c3ccccc3)cc2/C=C(/C#N)C(N)=O)cc1[N+](=O)[O-] | -0.112
61 | COC(=O)c1ccccc1NC(=O)CSc1nnnn1C1CCCCC1 | -0.894
62 | COc1cc(/C=N/NS(=O)(=O)c2ccccc2)ccc1OS(=O)(=O)c1ccc(C)cc1 | -0.33
63 | COCCn1nnnc1C(c1cccs1)N1CCN(c2ccccc2)CC1 (configuration not stated) | 0.411
64 | Cc1cc2ncn(C(=O)N3CCCC3)c2cc1C | 0.0628
65 | FCCCOc1ccc(/C=N/OCc2ccc(Cl)cc2Cl)cc1 | 0.201
66 | CCCCNCCOCCOc1ccc(F)cc1 | 0.866
67 | CC(=O)Nc1ccc(S(=O)(=O)NCc2ccc(C(=O)NCc3ccc4c(c3)OCO4)cc2)cc1 | -0.275
68 | CCOC(=O)C1CCN(C(C(=O)Nc2ccc3c(c2)OCCO3)c2ccccc2)CC1 (configuration not stated) | -0.863
69 | Cc1cc(=O)n2[nH]c(=O)c(N=Nc3ccccc3)c2[nH]1 | -0.442

Row | Compound | z-score
70 | Cc1c(C(=O)NCC2CCCO2)oc2ccc(S(=O)(=O)N3CC(C)CC(C)C3)cc12 (configuration not stated) | 1.9
71 | COCCCNC(=O)c1c(-c2ccccc2)noc1C | -0.662
72 | Cn1ncc([N+](=O)[O-])c1C(=O)Nc1nc2ccccc2n1CCN1CCCCC1 | 0.546
73 | CCOC(=O)Cc1c(C)nc2c(-c3ccccc3)c(-c3ccccc3)[nH]n2c1=O | 0.421
74 | O=C(N/N=C/c1cccc(F)c1)c1c(O)c2ccccc2[nH]c1=O | -0.268
75 | O=C1c2oc3ccccc3c(=O)c2C(c2cccc(O)c2)N1CCCN1CCOCC1 (configuration not stated) | 0.0855
76 | COc1cccc(C2CC(=O)Nc3cc(OC)c(OC)c(OC)c32)c1OC (configuration not stated) | -0.0778
77 | CC(O)CNc1ncnc2nc[nH]c12 (configuration not stated) | 0.604
78 | O=C(NCCCN1CCOCC1)c1ccc(Cl)c(S(=O)(=O)N2CCCCCC2)c1 | 0.0312
79 | O=C(CN(CC1CCCO1)C(=O)CCC(=O)Nc1ccccn1)NCC1CCCO1 (configuration not stated) | -0.00608
80 | CNC(=O)NC(=O)CSc1ncc(C(F)(F)F)cc1Cl | 1.33
81 | O=C(NC1CCCCC1)C(c1cccnc1)N(C(=O)CCl)c1ccccc1Cl (configuration not stated) | -0.00621
82 | Cc1c(Cl)cccc1-n1c(SCC(=O)NCc2cccs2)nnc1-c1ccncc1 | 0.0133
83 | CCc1nnc(NS(=O)(=O)c2ccc(NC(=S)NC(=O)c3ccc(F)cc3)cc2)s1 | 0.102
84 | CC(C)c1noc2ncc(C(=O)c3cc(Cl)cc(Cl)c3O)cc12 | 0.113
85 | O=C(CCC1CCCC1)Nc1nnc(-c2ccc3c(c2)OCO3)s1 | 0.291
86 | Cc1ccccc1C(=O)NNC(=O)CSc1nnc(C)n1-c1ccccc1 | 0.0371
87 | Cc1cccc(OCCOc2ccccc2C=C(C#N)C#N)c1 | -0.472
88 | C=CCn1c(SCC)nc(O)cc1=O | -0.0583
89 | CCCCCCn1c(CN2CCN(Cc3ccccc3)CC2)nc2c1c(=O)n(C)c(=O)n2C | 0.12
90 | CCOC(=O)c1ccc(N2C(=O)C3C(/C=C/c4ccccc4)OC4(C(=O)c5ccccc5C4=O)C3C2=O)cc1 (configuration not stated) | -0.217
91 | Cn1c(Cc2ccccc2)nnc1SCCC(=O)Nc1ccccc1 | -0.162
92 | Cc1ccc(S(=O)(=O)N/N=C/c2ccc(OS(=O)(=O)c3ccc(C)c([N+](=O)[O-])c3)cc2)cc1 | 0.202

Row | Compound | z-score
93 | Cc1ccc(C(=O)Nc2c(C(=O)NCc3ccco3)cnn2-c2ccccc2)cc1 | -0.385
94 | CC(=O)Nc1c(-c2ccc(F)cc2)nc2ccccn12 | 2.25
95 | COc1ccc(C)cc1S(=O)(=O)N(C)CC(=O)NC1CC1 | 0.411
96 | COc1ccc(C(OC(=O)c2cccs2)C(=O)NCC2CCCO2)cc1 (configuration not stated) | active: 8.22
97 | CCOc1cc(-c2c(C)c(C)nc(N)c2C#N)ccc1O | -0.372
98 | CCn1c(Cc2ccccc2)nnc1SCC(=O)Nc1ccccc1N1CCOCC1 | -0.397
99 | O=C(c1ccc(O)cc1)c1ccc(C(=O)O)c(C(=O)O)c1 | 0.13
100 | CCC(=O)Nc1ccc(Cl)c(NC(=S)NC(=O)COc2ccc(Cl)cc2)c1 | 0.622
101 | CN(C(=O)c1cccc(C#N)c1)c1nnc(-c2ccncc2)s1 | -0.95
102 | Cc1ccc(CSCCNS(=O)(=O)c2ccccc2)cc1 | -0.0516
103 | Cc1nnc(SCC(=O)NNC(=O)C(C)C)[nH]c1=O | -0.0447
104 | CC(C)c1nc(-c2ccccn2)no1 | 0.249
105 | CC(C)OC(=O)CSc1nnc(-c2ccc(Cl)cc2)n1N | 0.659
106 | O=C(CN(Cc1ccc(F)cc1)C(=O)c1ccco1)NCc1ccc(F)cc1 | -1.36
107 | CC(=O)Nc1ccccc1OCC(=O)NCCc1ccc(Cl)cc1Cl | -0.153
108 | Cn1cnnc1SCc1ccc(C(=O)O)cc1 | 0.795
109 | O=C(O)CC(Cc1ccccc1)c1ccc2c(c1)OCO2 (configuration not stated) | 0.249
110 | COc1ccc(-c2oc3ncnc(NCCN4CCOCC4)c3c2-c2ccc(OC)cc2)cc1 | -0.338
111 | COC(=O)C1=C(C)NC2=C(C(=O)CCC2)C1c1cn(Cc2ccc(Cl)cc2Cl)nc1-c1ccccc1 (configuration not stated) | -0.35
112 | CC1CCCCC1NC(=O)C1CCN(S(=O)(=O)c2ccc3c(c2)CCC(=O)N3)CC1 (configuration not stated) | 0.0122
